# Experimental data as given in paper PMC4336329 (PLoS ONE, 2015).
# In all, about 310,000 compounds went through this assay and about 2,200 (0.71%) showed an effect of 50% or more. The effect is printed as a negative number. The list shows a part of the results.
# Target: human ether-à-go-go-related gene (hERG) potassium channel (human, UniProt Q12809)
# Test: primary screen, population patch clamp on CHO cells stably expressing hERG
# Sequence of human ether-à-go-go-related gene (hERG) potassium channel (Q12809 whole entry, looked up): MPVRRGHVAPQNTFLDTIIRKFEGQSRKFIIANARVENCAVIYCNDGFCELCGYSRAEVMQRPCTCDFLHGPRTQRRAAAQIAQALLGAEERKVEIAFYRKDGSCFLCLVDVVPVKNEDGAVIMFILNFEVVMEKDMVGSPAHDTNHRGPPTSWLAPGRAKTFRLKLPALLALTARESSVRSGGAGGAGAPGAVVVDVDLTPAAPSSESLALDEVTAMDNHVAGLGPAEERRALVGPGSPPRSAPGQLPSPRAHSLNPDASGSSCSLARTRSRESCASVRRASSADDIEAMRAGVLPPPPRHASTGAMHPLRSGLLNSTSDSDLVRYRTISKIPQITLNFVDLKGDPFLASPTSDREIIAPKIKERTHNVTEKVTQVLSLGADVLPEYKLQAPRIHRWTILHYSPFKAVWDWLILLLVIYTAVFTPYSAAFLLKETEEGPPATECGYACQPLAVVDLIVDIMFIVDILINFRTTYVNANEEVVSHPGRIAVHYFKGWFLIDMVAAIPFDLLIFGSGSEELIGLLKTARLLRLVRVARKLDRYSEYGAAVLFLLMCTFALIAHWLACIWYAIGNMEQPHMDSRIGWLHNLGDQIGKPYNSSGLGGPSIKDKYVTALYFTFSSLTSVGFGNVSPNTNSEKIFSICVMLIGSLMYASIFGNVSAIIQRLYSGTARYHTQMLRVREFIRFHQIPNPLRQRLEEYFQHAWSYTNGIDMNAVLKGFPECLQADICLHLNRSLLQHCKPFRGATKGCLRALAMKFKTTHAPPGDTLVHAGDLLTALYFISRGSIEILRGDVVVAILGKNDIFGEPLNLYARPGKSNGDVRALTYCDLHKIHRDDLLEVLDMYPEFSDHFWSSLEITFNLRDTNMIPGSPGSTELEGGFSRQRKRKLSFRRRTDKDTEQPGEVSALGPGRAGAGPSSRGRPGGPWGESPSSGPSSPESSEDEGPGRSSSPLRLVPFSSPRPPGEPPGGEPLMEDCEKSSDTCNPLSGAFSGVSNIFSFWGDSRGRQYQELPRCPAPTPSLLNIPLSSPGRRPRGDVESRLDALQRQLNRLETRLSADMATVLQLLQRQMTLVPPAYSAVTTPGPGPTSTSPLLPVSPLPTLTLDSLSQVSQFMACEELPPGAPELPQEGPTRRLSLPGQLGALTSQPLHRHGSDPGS
row,SMILES,"hERG current change (%, negative = inhibition) at 1uM [%]"
1,COc1ccc(NC(=O)c2cc3c(-c4ccc(OC)c(OC)c4)nn(C)c3s2)cc1OC,5.64
2,CCc1sc(C(=O)NCCc2ccc(S(N)(=O)=O)cc2)cc1C,4.22
3,C/C(N)=C(/C#N)C(=O)CSc1nnc(Nc2ccccc2)s1,12.2
4,COc1ccc(C(=O)NNC(=S)NC(=O)c2ccc(OC)cc2)cc1,20.2
5,O=C(N/N=C/c1ccc(OC(F)F)cc1OC(F)F)NC1CCCCC1,14.9
6,CCc1ccccc1NC(=S)N1CCN(c2ccccc2F)CC1,-0.145
7,COC(=O)Cc1cccc2c(=O)c3ccccc3oc12,38
8,CC1CCN(C(=O)Cn2cc3c(n2)CCCC3)CC1,2.13
9,CC1CN(CC(O)COc2ccccc2C(C)(C)C)CC(C)O1.Cl (centres unmarked),1.91
10,COCCn1c(=O)[nH]c2cc(C(=O)NCc3cccnc3)ccc2c1=O,-2.73
11,CC(Sc1nnc(-c2ccco2)o1)C(=O)NCCC1=CCCCC1 (centres unmarked),7.17
12,COc1ccc(CCNC(=O)CSc2nnc(CNC(=O)c3cccs3)o2)cc1OC,3.28
13,COc1ccc(-c2cc(C(=O)N3CCN(C(c4ccccc4)c4ccccc4)CC3)no2)cc1OC,-5.49
14,CCOC(=O)c1[nH]c(C)c(C(=O)OCC(=O)N(Cc2ccccc2)C(C)C)c1C,2.82
15,Cc1cc(S(=O)(=O)NCCC2=CCCCC2)ccc1Br,-3.15
16,COC(=O)[C@@]1(Cc2ccc(OC)cc2)[C@H]2c3cc(C(=O)N(C)C)n(CCc4ccc(OC)c(Br)c4)c3C[C@H]2CN1C(=O)c1ccccc1,18
17,CN(C(=O)COC(=O)c1ccc(NS(=O)(=O)c2cccs2)cc1)C1CCCCC1,0.305
18,CC(=O)c1ccc(NC(=O)CCC(=O)OCC(F)(F)C(F)F)cc1,-1.69
19,Cc1cc(C)c(NC(=O)COC(=O)C2=COCCO2)c(Cl)c1,14.2
20,O=C(O)CSCc1ccc(Cl)cc1,13.6
21,O=C(c1c[nH]c2ccccc12)C(Cl)c1ccccc1 (centres unmarked),13.8
22,C=CCOc1nc2c(c(=O)n(Cc3ccc(Cl)cc3)c(=O)n2C)n1C,9.92

row,SMILES,"hERG current change (%, negative = inhibition) at 1uM [%]"
1,CCC1(C(=O)OC)NC(c2ccco2)C2C(=O)N(c3ccccc3)C(=O)C21 (centres unmarked),7.48
2,O=C(c1ccc(Cl)s1)N1CCN(C23CC4CC(CC(C4)C2)C3)CC1,5.12
3,Clc1ccc(-c2nnc(-c3ccco3)o2)cc1,9.8
4,COc1ccc(-c2csc(NCc3ccco3)n2)cc1C,12
5,O=C(OCC(=O)N1CCN(c2ccccc2)CC1)c1cc(Cl)ccc1[N+](=O)[O-],-6.32
6,C=CCN=C(C)C1=C(O)C(C)OC1=O (centres unmarked),17.1
7,O=C(CN1CCCCC1)NNC(=O)c1ccc([N+](=O)[O-])cc1,11.4
8,Cc1ccccc1-n1cc(C(=O)c2cc(Cl)ccc2O)cc(C#N)c1=O,11.1
9,CC(Nc1nc(=S)nc(Nc2ccc(F)cc2)[nH]1)c1ccccc1 (centres unmarked),15.9
10,O=C(CS(=O)c1ccc(F)cc1)Nc1ccccc1Cl (centres unmarked),12.7
11,CCCCCn1c(CN2CCN(C(=O)OCC)CC2)nc2c1c(=O)n(C)c(=O)n2C,-3.02
12,CCC/C(C)=C/c1ccc(CC)cn1,11.3
13,COc1ccc(/C=N\NC(=O)c2ccc([N+](=O)[O-])c(C)c2)cc1COc1ccccc1C(N)=O,20.4
14,N#CC1(P(=O)(c2ccccc2)c2ccccc2)CC1,1.28
15,O=C(NCc1ccccc1C(F)(F)F)C1CC(O)CN1C(=O)Nc1ccccc1 (centres unmarked),15.8
16,Cc1cccc(Nc2nnc(SCC(=O)c3c(N)n(C4CC4)c(=O)[nH]c3=O)s2)c1C,9.07
17,O=C(Nc1ccc(C(F)(F)F)cc1)C1(c2ccccc2)CC1,5.32
18,CC(C)(C)NC(=O)C(c1ccccn1)N(C(=O)C1CSC(=O)C1)c1cccc(F)c1 (centres unmarked),14.9
19,Cc1cccc(OCC(=O)Nc2ccc(N3CCN(C(=O)c4ccco4)CC3)cc2)c1,-6.73
20,O=C(O)/C=C/C(=O)Nc1ccc2nccnc2c1,18.4
21,OCCNc1nc(-c2ccccc2)nc2c1oc1ccccc12,6.62
22,COc1ccc(C)cc1Nc1n[n+](-c2ccccc2)c(-c2c(OC)ccc3ccccc23)s1.[Cl-],-7.05
